From PubChem BioAssay AID463173 (ICCB-Longwood Screening Facility, Harvard Medical School, 2010) come the findings set out here.

SMILES strings stand for the structures. Out of some 52,000 compounds screened, about 1,700 (3.3%) were called active. Rule as the data show it: active = survival mostly below about 52% (no sharp cut-off); inactive = mostly above about 56%. This is one part of the list.

This test concerns Wild type. The experiment in a line: growth inhibition of S. aureus wild type versus tarO mutant, primary screen, teichoic acid synthesis inhibitors, RN4220, OD600 (AID 463173). The following applies: S. aureus RN4220 wild type/DeltatarO growth, OD600, 18 h, active compounds read low, screened at 18.75 µg/mL (by protocol).
For the molecule `O=C(CCSCc1cnn(-c2ccccc2)c1-n1cccc1)NCc1ccccc1F`, the survival is inactive: 77%.
Take `CCOc1ccc(NC(=O)c2cc3c(-c4ccccc4F)nn(C)c3s2)cc1`: the survival is inactive: 124%.
As for `CC(C)(C)OC(=O)N1CCC(c2c(C(=O)NCc3ccc(F)cc3)cnn2-c2ccc(F)cc2)CC1`, the survival was active: -6%.
For `COc1cccc(C(=O)N(Cc2sccc2C)C2CCS(=O)(=O)C2)c1` (centres undefined), the survival is inactive: 84%.
Consider `CCOC(=O)c1c(C)oc2nc(C)nc(N3CCN(c4ccc(C(C)=O)cc4)CC3)c12`, for which the survival is inactive: 91%.
`COc1ccc2cc3cc(C(=O)N4CCN(c5ccc(C(C)=O)cc5)CC4)sc3nc2c1Cl`: the survival was inactive: 75%.
Turning to `Cc1ccc(-c2cn3c(n2)sc2cc(C(=O)NCCCN4CCCCC4)ccc23)cc1`, the survival was active: -1%.
`COc1ccc(C(=O)Nc2cc(-c3cccc(C)c3)nn2-c2ccccc2)cc1`: the survival is inactive: 124%.
Take `COc1ccc(OCC2c3cc(OC)c(OC)cc3CCN2C(=O)c2ccc(F)cc2)cc1` (centres undefined): the survival was inactive: 128%.
With `CCN(CC)CCNC(=O)c1sc2nc3n(c(=O)c2c1C)CCCCC3` the figure was inactive: 87%.
For `O=S(=O)(NCc1nc2cccnc2n1Cc1ccc(F)cc1)c1ccc2c(c1)CCCC2` the value was inactive: 69%.
For `CCOC(=O)c1ccc(NC(=O)c2c(NCc3cccs3)sc3c2CCCCC3)cc1`, the survival was inactive: 126%.
For the molecule `Nc1nc2sc3c(c2cc1C(=O)N1CCOCC1)CCCC3`, the survival is inactive: 103%.
For `Cc1ccc(-c2nc(C#N)c(NCCN3CCCCC3)o2)cc1` the value was inactive: 100%; for `O=S(=O)(NCCc1csc2nc(-c3ccc(F)cc3)nn12)c1ccc(Br)cc1`, inactive: 71%; for `Cc1cc(NC(=O)Cn2c(=O)nc(-c3ccccc3F)c3cc(Cl)ccc32)ccc1Br`, inactive: 147%.
On to `CC1=C(C(=O)Nc2ccccc2C)C(c2ccncc2)n2nc(SCc3ccccc3)nc2N1` (centres undefined), for which the survival is inactive: 84%.
As for `COc1cc(C(=O)N2CCc3ccccc32)cc(OC)c1OC`, the survival was inactive: 115%.
With `Cc1cc(S(=O)(=O)N2CCOCC2)ccc1N=Cc1c(C)[nH]n(-c2ccc(Cl)cc2)c1=O`, the survival was inactive: 101%.
Turning to `Cc1cccc(Cn2c(CN3CCC(C(=O)NCc4cccnc4)CC3)cc3ccccc32)c1`, the survival was inactive: 71%.
For `Cc1ccc(NC(=O)Cn2c(=O)n(-c3ccc(Cl)c(Cl)c3)c(=O)c3c(C)c(C)sc32)c(C)c1` the value was inactive: 86%.
As for `O=C(O)CSc1nnc(-c2ccccc2)n1-c1ccccc1`, the survival was inactive: 108%.
Turning to `CCN1CCN(c2cc(C)c3cc(NC(=O)c4cccc(C(F)(F)F)c4)ccc3n2)CC1`, the survival is inactive: 79%.
As for `COc1cn(CC(=O)Nc2ccc(F)cc2)c(CN2CCCCC2)cc1=O`, the survival was inactive: 72%.
`COc1cccc(CSc2nc3n(n2)C(c2cccs2)C(C(=O)Nc2ccccc2C)=C(C)N3)c1` (centres undefined): the survival is inactive: 71%.
With `CCOC(=O)c1c(N)n(-c2ccc(Cl)c(Cl)c2)c2nc3ccccc3nc12` the figure was inactive: 77%; with `Cc1cc(C)nc(SCCSc2nc(C)cc(C)n2)n1`, inactive: 99%.
Regarding `COc1nc(N2CCCCCC2)nc(N2CCCCCC2)n1`, the survival was inactive: 104%.
Turning to `CCOC(=O)c1ccc(NC(=O)CC2C(=O)N(c3cccc(OC)c3)C(=O)N2C2CCCCC2)cc1` (centres undefined), the survival is inactive: 75%.
With `O=S(=O)(N1CCCCC1)N1CCN(c2ccc(F)cc2)CC1`, the survival was inactive: 116%.
With `Cc1ccc(OCCn2cc(C(=O)C3CCCCC3)c3ccccc32)cc1`, the survival is active: 1%.
Consider `COc1ccc(C(c2nnnn2C2CCCCC2)N2CCC(C)CC2)cc1OC` (centres undefined), for which the survival is inactive: 104%.
For `COC(=O)c1ccc(Cl)cc1NC(=O)N1CCCn2nc(C)cc21`, the survival was inactive: 128%.
On to `COc1cc(OC)c(NC(=O)CCCn2nc(C)c3sc4ccccc4c3c2=O)cc1Cl`, for which the survival is inactive: 60%.
`COc1nc(-c2ccc(C)cc2)ccc1-c1noc(-c2ccccc2Br)n1`: the survival was active: 2%.
Consider `Cc1ccc(C(c2nnnn2Cc2ccccc2)N2CCC(C)CC2)cc1` (centres undefined), for which the survival is inactive: 101%.
For `O=c1c2cccnc2n(Cc2ccccc2F)c(=O)n1Cc1ccccc1Cl` the value was inactive: 86%; for `Cc1ccc(C)c(N2CCN(C(=O)CN3CCSc4ccc(S(=O)(=O)N(C)C)cc43)CC2)c1`, inactive: 73%.
Consider `CC(=O)Nc1nonc1-c1nnc(SCC(=O)Nc2cc(C)cc(C)c2)n1C`, for which the survival was inactive: 84%.
For `COc1ccc(-c2nc3sc(-c4ccc(OC)cc4)nc3s2)cc1`, the survival was inactive: 109%.
For `COc1cccc(NC(=O)/C(C#N)=C\c2cn(Cc3ccc(C)cc3)c3ccccc23)c1`, the survival was inactive: 105%.
In the case of `O=C(c1ccc(C(F)(F)F)cc1)N1CCC(c2nc(-c3ccc(S(=O)(=O)N4CCCC4)cc3)no2)CC1`, the survival is inactive: 87%.
With `Cc1oc2ncn(CC(C)C)c(=O)c2c1C(=O)N1CCN(c2ccc(F)cc2)CC1` the figure was inactive: 57%; with `COc1ccccc1CNc1ccc(-c2nc(C)no2)cc1[N+](=O)[O-]`, inactive: 69%.
For `COc1ccc(-c2oc3ncn4nc(-c5ccccc5Br)nc4c3c2-c2ccc(OC)cc2)cc1` the value was inactive: 60%.
Regarding `Cc1ccc2[nH]c3c(=O)n(CC(=O)N(C)c4cc(Cl)ccc4C)ncc3c2c1`, the survival is inactive: 67%.
With `O=C(c1ccc2c(c1)N(Cc1cccc(Cl)c1)C(=O)c1ccccc1S2(=O)=O)N1CCCCC1` the figure was inactive: 79%; with `Cc1ccc(C)c(NC(=O)Cn2cc(C(=O)C3CCCCC3)c3ccccc32)c1`, inactive: 67%.
Consider `COc1cccc(NC(=O)c2oc3ccccc3c2NC(=O)c2ccc(C(F)(F)F)cc2)c1`, for which the survival is inactive: 60%.
With `O=C(CN1CCCN(Cc2ccc(Cl)cc2)S1(=O)=O)Nc1ccccc1F` the figure was inactive: 53%; with `COc1cccc2c1Oc1ncccc1N(C(=O)CCC(=O)NCc1ccc(N(C)C)cc1)C2`, inactive: 65%.
As to `COc1ccc(-n2c(=O)c3c4c(sc3n(Cc3ccccc3)c2=O)CN(C(C)=O)CC4)cc1OC`, the survival is inactive: 84%.
`COc1ccccc1NC(=O)c1ccc2c(Cl)c3c(nc2c1)CCCC3`: the survival is inactive: 19%.
In the case of `CCOC(=O)c1c(C)[nH]c(C)c1S(=O)(=O)N1CCC(C(=O)N2CCN(c3ccc(Cl)cc3)CC2)CC1`, the survival is inactive: 68%.
With `CCOc1ccc(NC(=O)N2CC=C(c3c[nH]c4ccccc34)CC2)cc1`, the survival is inactive: 75%.
For the molecule `CC1=C(c2ccc(C)c(C)c2)S(=O)(=O)N=C1N1CCC(C(=O)NCCc2ccc(Cl)cc2)CC1`, the survival is inactive: 132%.
Consider `O=C(c1cc(=O)c2cc(Cl)ccc2o1)N(Cc1ccccc1)C1CCS(=O)(=O)C1` (centres undefined), for which the survival was inactive: 86%.
As to `COc1cc(Cl)c(C)cc1NC(=O)c1cc2ccc3cccnc3c2[nH]1`, the survival is inactive: 73%.
As to `CC(=O)OCc1cnc(C)c2oc(=O)c(C(=O)Nc3cccc(F)c3)cc12`, the survival was inactive: 120%.
For `Cc1ccc(-n2ncc3c(NCCCc4ccccc4)ncnc32)cc1`, the survival is inactive: 69%.
Regarding `Cc1nc(N2CCCC2)c2c(C(=O)Nc3cccc(Cl)c3C)c(C)oc2n1`, the survival is inactive: 45%.
On to `COc1cc2[nH]c(=O)n(Cc3ccc(C(=O)NCc4ccccc4)cc3)c(=O)c2cc1OC`, for which the survival is inactive: 71%.
With `Cc1nc(SCC(=O)N2c3ccccc3CCc3ccccc32)n[nH]1` the figure was inactive: 98%.
For `COc1ccc(NC(=O)CSc2nc3nc(C)c(Cc4ccc(C)cc4)c(C)n3n2)cc1OC`, the survival was inactive: 93%.
For `COc1ccc(Cl)cc1-n1nnc(-c2nc(-c3ccc4c(c3)OCO4)no2)c1C`, the survival was inactive: 71%.
With `CCCNC(=O)C1CCC(Cn2c(=O)c3sccc3n(Cc3ccccc3C)c2=O)CC1` (centres undefined) the figure was inactive: 70%; with `COc1ccccc1NC(=O)C(=O)c1cc(C)n(-c2ccccc2F)c1C`, inactive: 101%; with `Cc1cccc(C)c1NC(=O)c1csc2c1CCCC2`, inactive: 100%.
On to `Cc1ccc(NC(=O)Nc2nnc(SCC(=O)Nc3ccc(F)cc3F)s2)cc1`, for which the survival is inactive: 74%.
For `CC(C)(C)NC(=O)CSc1nnc(-c2cccs2)o1` the value was inactive: 106%; for `CCc1ccc(NC(=O)c2cc(S(=O)(=O)N3CCCCCC3)ccc2F)cc1`, inactive: 124%.
On to `CCCCN1CC(c2nc3ccccc3n2CCCCOc2ccc(C)cc2C)CC1=O` (centres undefined), for which the survival is active: -5%.
In the case of `Cn1ccc(-c2ccccc2)n1`, the survival is inactive: 110%.
On to `Cc1ccc(-n2ncc3c(NCCCN4CCOCC4)ncnc32)cc1Cl`, for which the survival was inactive: 83%.
For `O=C(NCCCc1nc2ccccc2n1Cc1cccc(Cl)c1)c1ccco1` the value was inactive: 84%.
For the molecule `COc1cc(Cl)c(C)cc1NC(=O)c1cnn(-c2ccc(C)cc2)c1-n1cccc1`, the survival was inactive: 65%.
Turning to `c1coc(-c2nc3ccccn3c2Nc2ccc3c(c2)OCCO3)c1`, the survival is inactive: 70%.
Turning to `CCOc1ccc(NC(=O)CCS(=O)(=O)c2ccc3nc(C)sc3c2)cc1`, the survival is inactive: 98%.
In the case of `Cc1ccc(C)n1-c1ccc(NC(=O)c2ccccc2)cc1`, the survival was inactive: 114%.
Turning to `COc1ccc(-n2c(=O)c3sc4ccccc4c3n(CC(=O)N3CCCC3)c2=O)cc1`, the survival was inactive: 92%.
Consider `Cc1nc(-c2ccc(C)c(N3CCN(C(=O)Nc4ccc(Br)cc4)CC3)c2)no1`, for which the survival was active: -1%.
Take `CCn1cc(S(=O)(=O)c2cccc(C)c2)c(=O)c2cc(F)c(N3CCCCC3C)cc21` (centres undefined): the survival is inactive: 70%.
For `Cc1ccc(Cn2c(SCc3ccc(C(=O)NCCc4ccccc4)cc3)nc3ccncc32)cc1` the value was inactive: 78%.
Regarding `COc1ccc(-n2c(SCC(=O)N3CCCc4ccccc43)nc3c([nH]c4ccccc43)c2=O)cc1`, the survival was inactive: 78%.
As for `COc1ccc(-c2cn3c(n2)sc2cc(C(=O)Nc4ccccc4F)ccc23)cc1`, the survival is inactive: 70%.
For `CS(=O)(=O)c1nc(-c2ccc(Br)cc2)n[nH]1` the value was inactive: 116%.
With `CN(C)CCNC(=O)c1ccc2nc(CCc3ccccc3)oc2c1`, the survival is inactive: 73%.
For `CCc1ccc2occ(CC(=O)Nc3c(C(=O)Nc4ccc(Cl)cc4)oc4ccccc34)c2c1` the value was inactive: 83%.
With `Cc1cc(-c2ccc(C)c(S(=O)(=O)N(Cc3cccs3)C(C)C)c2)on1`, the survival was inactive: 65%.
